# Measurements as given in PubChem BioAssay AID1347073 (National Center for Advancing Translational Sciences (NCATS), 2019).
# In all, about 45,000 compounds went through this assay and about 200 (0.44%) were called active. About 7% were inconclusive and are not listed. Calls come from the whole dose curve; as a rule, active = well fitted activation curve with a large enough effect; inconclusive = small, poorly fitted or top-dose-only effect; inactive = no such curve, though single readings can be large or run the other way. This is one part of the list.
# Assay: qHTS of TDP-43 Inhibitors: NCGC Sytravon Library Screen; note: 0% is about no effect; nearly all actives have a fitted effect of over 55% in size
# Details: yeast TDP-43 toxicity rescue, BacTiter-Glo growth, 24 h; series mostly up to 46.1 µM; growth rescue (activation): at the top concentration
# Procedure, shortened: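 TDP-43-expressing yeast, pregrown in raffinose, seeded at OD600 0.02 in galactose medium with compound for 24 hr at 30 deg C. Growth read by BacTiter-Glo luminescence, so rescue of toxicity appears as activation.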
row,Structure (SMILES),growth rescue (activation)
1,CSc1ncccc1C(=O)OCC(=O)Nc1ccc(S(=O)(=O)N2CCCC2)cc1,inactive: 23.2%
2,O=C(CN1C(=O)COc2ccccc21)NCC1CCCO1 (centres undefined),inactive: 4.81%
3,COc1ccc(-c2[nH]ncc2CN(CCO)CC23CC4CC(CC(C4)C2)C3)c(OC)c1,inactive: -5.34%
4,C=CCN1CC2(c3ccccc3)CN(CC=C)CC(c3ccccc3)(C1)C2=O,inactive: 1.97%
5,CCc1ccc(CC2(O)CC(C)N(C)CC2C)cc1 (centres undefined),inactive: -3.79%
6,COc1cc(CN(C)CC2CCCN(CCc3ccccc3F)C2)cc(Cl)c1OC (centres undefined),inactive: -0.0838%
7,CC(NC1c2ccccc2-c2ccccc21)c1ccccc1 (centres undefined),inactive: -1.82%
8,CN(CC(=O)NC1CCN(Cc2ccccc2)CC1)S(=O)(=O)c1ccc2c(c1)c(=O)n(C)c(=O)n2C,inactive: 1.18%
9,CN(CC(=O)Nc1ccc(F)cc1)C(=O)c1ccc(OCc2cn3ccccc3n2)cc1,inactive: -2.47%
10,O=C(NNC(=O)C1CCCCC1)c1ccncc1,inactive: -0.641%
11,COc1cc2c(cc1OC)CN(Cc1ccc(F)cc1)CC2,inactive: -0.142%
12,CCC(Oc1ccccc1OC)C(=O)Nc1ccc2c(c1)n(C)c(=O)n2C (centres undefined),inactive: 10.2%
13,CCCc1cc(=O)[nH]c(SCC(=O)NN(c2ccccc2)c2ccccc2)n1,inactive: -15.3%
14,COc1cccc(C(NC(C)=O)c2nc(-c3cccc(C#N)c3)cs2)c1 (centres undefined),inactive: 4.02%
15,COc1ccc(C(=O)C[n+]2ccc(-c3nnc4n3CCCCC4)cc2)cc1,inactive: 7.73%
16,Cc1ccc(C)c(NC(=O)CN(C)C(=O)COc2ncnc3sccc23)c1,inactive: -1.72%
17,CCOC(=O)c1ccc(NC(=O)C(CC)Sc2nc3ncccc3o2)cc1 (centres undefined),inactive: -3.22%
18,COc1ccc(/C=C2\SC(=O)N(CCNC(=O)Cn3[nH]c(=O)c4ccccc4c3=O)C2=O)cc1,inactive: 0.952%
19,COc1cccc(-c2cnc(C(O)c3ccc(F)cc3C)[nH]2)c1 (centres undefined),inactive: -2.17%
20,COCCN1CCN(C(=O)C2CCC(=O)N(CCc3ccccc3)C2)CC1 (centres undefined),inactive: -13.5%
21,CC(C)(C)c1ccc(CSc2nnc(-c3ccccc3NC(=O)c3ccccc3)o2)cc1,inactive: 7.92%
22,O=C1CC2(CON=C2c2ccc(F)cc2)C(=O)N1c1ccc(F)cc1 (centres undefined),inactive: 3.75%
23,COc1cccc(S(=O)(=O)Nc2ccc(C(=O)N3CCCCCC3)cc2)c1,inactive: -3.66%

row,Structure (SMILES),growth rescue (activation)
1,Cc1ccc(NC(=O)CSc2ccccc2NC(=O)c2cccc(Cl)c2)cc1Cl,inactive: -4.63%
2,CNC(=O)c1sc(Nc2ccc(OCc3ccccc3)cc2)nc1C,inactive: 21.5%
3,COCc1cc(C)nc(OCC(=O)N/N=C/c2ccc(O)cc2O)c1C#N,inactive: -2.36%
4,COc1ccc(NC(=S)Nc2ccc3nccnc3c2)cc1,inactive: -7.05%
5,CC(C)(C)NC(=O)c1cc(NC(=O)c2cccs2)cc(NC(=O)c2cccs2)c1,inactive: -2.26%
6,COc1ccc(NC(=O)/C=N/O)cc1,inactive: -6.44%
7,COc1cc(OC)cc(C(=O)Nc2ccccc2C(=O)NCc2cccnc2)c1,inactive: -6.52%
8,COc1ccc(C(O)c2ncc(-c3ccccc3)[nH]2)cc1F (centres undefined),inactive: -6.96%
9,COc1ccc(S(=O)(=O)N(C)CC(=O)NCCN2CCOCC2)cc1,inactive: 10.7%
10,Cc1nc(C(F)(F)F)ccc1C(=O)N1CCC1(C)C(=O)NS(=O)(=O)c1cccc(C#N)c1 (centres undefined),inactive: -0.343%
11,NS(=O)(=O)c1cccc(NC(=O)COC(=O)CC2CC3CCC2C3)c1 (centres undefined),inactive: 0.607%
12,CC(=O)NCCNC(=O)C1(C)Cc2c(-c3cccc(C(F)(F)F)c3)ccnc2O1 (centres undefined),inactive: 15.2%
13,CC(NC(=O)c1ccc2c(c1)C(=O)N(Cc1cccnc1)C2=O)c1ccccc1 (centres undefined),inactive: -3.46%
14,Nc1ccc(S(=O)(=O)Nc2nccc(/C=C/c3ccccc3F)n2)cc1,inactive: -7.52%
15,COc1ccccc1C(CC(N)=O)c1ccco1 (centres undefined),inactive: 5%
16,Cc1c(Cl)cccc1NC(=S)N1CCCN(Cc2ccccc2F)C1,inactive: 0.696%
17,O=C(CNC(=O)c1cccs1)OCc1ccc(Cl)cc1,inactive: 25.8%
18,O=C(Nc1cccc(NC(=O)c2cccc(F)c2)c1)c1ccccc1,inactive: 17.5%
19,CC(=O)c1c(C)[nH]c(C(=O)NCC2CCCCC2)c1C,inactive: 20.5%
20,CCOCCCNC(=S)N1CCCN(c2nc3c(C)c(C)ccc3cc2C#N)CC1,inactive: 14.1%
21,Cn1cc(C(=O)NCCO)c(=O)c2ccccc21,inactive: 0.396%
22,O=C(O)COc1ccccc1Cc1ccccc1,inactive: 8.22%
23,Cc1cc(Br)c2c(c1)=C(c1sc(N3CCCCCC3)nc1O)C(=O)N=2,inactive: 4.51%

row,Structure (SMILES),growth rescue (activation)
1,COc1ccc(CCNC(=O)/C(C#N)=C2\N=C(NC(=O)c3ccco3)c3ccccc32)cc1,inactive: 0.833%
2,Cc1cc[n+](-c2[nH]c(=O)sc2/C=N/NC([S-])=Nc2ccccc2)cc1,inactive: -8.54%
3,COCCCNC(=S)N(Cc1cccnc1)Cc1ccc(OC)c(OC)c1,inactive: -10.6%
4,Nc1ccc(S(N)(=O)=O)cc1N,inactive: -0.73%
5,Cc1cc(S(=O)(=O)N2CCCC2)ccc1OCC(=O)NC1CCCC1,inactive: 7.38%
6,CON(C)S(=O)(=O)c1cccc(C(=O)Oc2ccc(N(C)S(=O)(=O)c3ccccc3)cc2)c1,inactive: -4.99%
7,COc1cc(/C=C/C(=O)OCC(=O)N2CC3(C)CC2CC(C)(C)C3)ccc1O (centres undefined),inactive: -9.72%
8,COc1cccc(OC)c1C(=O)Nc1cccnc1,inactive: -0.379%
9,Cc1ccc(C(=O)N/C(=C\c2ccco2)C(=O)NC2CCS(=O)(=O)C2)cc1 (centres undefined),inactive: 10.1%
10,N#Cc1ccc(-c2cccc3nccn23)cc1,inactive: 6.47%
11,Cc1ccc(N(C(=O)c2csnn2)C(C(=O)NC(C)(C)C)c2cccnc2)cc1C (centres undefined),inactive: 6.98%
12,Cc1ccc(-c2nnc(N3CCOCC3)c3ccccc23)cc1S(=O)(=O)NCc1cccnc1,inactive: 5.22%
13,O=C(NC(c1ccc(Cl)cc1)c1ccsc1)C1CCN(CCOc2ccc(Cl)cc2)CC1 (centres undefined),inactive: 14.4%
14,CCCOP(=O)(c1ccc(N(C)C)cc1)C(O)c1ccc(Cl)cc1Cl (centres undefined),inactive: 8.31%
15,CN1CCCN(C(=O)c2ccc(Br)cc2)CC1,inactive: 3.8%
16,CCOC(=O)c1cc(-c2ccc3c(c2)OCCO3)n[nH]1,inactive: 3.77%
17,O=c1c2nncn2c2cc(C(F)(F)F)ccc2n1CCNc1ncc(C(F)(F)F)cc1Cl,inactive: 24.9%
18,CC(C)OC(=O)C(=O)NNc1ccccc1,inactive: 4.25%
19,C=CCNC(=O)NC(=O)COn1nnc2ccc(S(=O)(=O)N(C)C)cc21,inactive: -1.24%
20,CCOC(=O)c1ccc(N2C(=O)CC(Nc3ccc(O)cc3)C2=O)cc1 (centres undefined),inactive: -5.37%
21,CCOC(=O)c1c(NC(=O)Cn2nc(C(=O)O)c3ccccc3c2=O)sc2c1CCC(C)C2 (centres undefined),inactive: -36.6%
22,CCC1(c2ccccc2)NC(=O)N(CC(=O)NCc2ccncc2)C1=O (centres undefined),inactive: 13.3%
23,O=C(CCl)N1CCCC1c1ccc2c(c1)OCCO2 (centres undefined),inactive: 13.8%
